The text below walks through data of PMC7819943, “Rice protein-binding microarrays: a tool to detect cis-acting elements near promoter regions in rice”.

Some of the results follow.

This assay deals with T1, OsWOX13 (Oryza sativa, UniProt Q5QMM3 1-267).
T1 sequence: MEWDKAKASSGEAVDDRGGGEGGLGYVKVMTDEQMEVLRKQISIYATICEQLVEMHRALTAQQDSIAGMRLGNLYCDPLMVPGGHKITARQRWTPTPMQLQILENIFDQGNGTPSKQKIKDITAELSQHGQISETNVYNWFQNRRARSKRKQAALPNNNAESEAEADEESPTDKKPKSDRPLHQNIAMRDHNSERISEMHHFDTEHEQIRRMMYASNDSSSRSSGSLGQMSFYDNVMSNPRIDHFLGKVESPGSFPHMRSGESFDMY
Nature of the assay: protein-binding microarray (RPBM); PBS, 2% BSA, 51.3 ng/ul salmon testes DNA, 50 uM zinc acetate, 200 nM TF, 25 C, 1 h; high values mean tight binding. As to conditions: protein: recombinant; tags: N-terminal polyhistidine and DsRed monomer fusion (pET32a); label: CyDye5-dUTP incorporated in the synthesized complementary strand; 3' TTTTT single-stranded linker to array surface; dsDNA, one strand shown. The essentials: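 Polyhistidine-tagged DsRed fusions of transcription factors, joined at the N-terminus, were expressed in E. coli BL21-CodonPlus and isolated on Ni–NTA. They were incubated at 200 nM for 1 h at 25 °C on a custom Agilent array, double-stranded and BSA-blocked, in PBS with 2% BSA, salmon testes DNA and 50 µM zinc acetate. The binding signal is per-feature fluorescence intensity (arbitrary units) read on an Axon 4000B scanner after washing.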
“CAGTAACTGGCAGGTTTGACGGACTCCAGGTCTTGCCTCTCGGAGTCACCTAGTGCAG”: the binding signal was 9020 fluorescence intensity (a.u.). The same measure for “AGACAAACTAATTGCACAGTTTGCATATAAATTGCGAGACCGGAGTCACCTAGTGCAG”: 24400 fluorescence intensity (a.u.). In the case of “ACTATAGATTTAATAAAACTAACTTGGTGTTATAAACATTCGGAGTCACCTAGTGCAG”, the binding signal was 4690 fluorescence intensity (a.u.).

Regarding “ATCTTAATTTAAAATTTAGTGTTTATATTACTTGAACAAACGGAGTCACCTAGTGCAG”, the binding signal was 36000 fluorescence intensity (a.u.). Then “TTGAAGACGTACTAATTATACTCAAAACAAACAGAAGCAACGGAGTCACCTAGTGCAG”, with 3500 fluorescence intensity (a.u.); and “GAATTAATTAACAATATTGCTAAAGCTCACTGGGGCTGGGCGGAGTCACCTAGTGCAG”, with 33400 fluorescence intensity (a.u.). Consider “CGGCCCTAGTATACCATCAATCTAATCTAATGGTCGGATCCGGAGTCACCTAGTGCAG”, for which the binding signal is 3380 fluorescence intensity (a.u.). The same measure for “TCTGATTAGTAAATTTCAAGCGAAAGGGACATTGCGGTAGCGGAGTCACCTAGTGCAG”: 36500 fluorescence intensity (a.u.); for “AGGAAGTAATAGCTAATGATTTTGGACATGGTGAGTGAAGCGGAGTCACCTAGTGCAG”: 4310 fluorescence intensity (a.u.). Then “ACAGATAATTTTATAGCCTTATCGATTGGCATACGCTTATCGGAGTCACCTAGTGCAG”, with 10000 fluorescence intensity (a.u.); and “TCTAAATTAAACACGTCTAAGTTGCAAAAGCACAGTAATACGGAGTCACCTAGTGCAG”, with 5340 fluorescence intensity (a.u.); and “CTTTACATTAATTACTATCAGTTTCATCCATATCCTAATCCGGAGTCACCTAGTGCAG”, with 7310 fluorescence intensity (a.u.). The same measure for “GGGAGAGAGATCAATCAATATATATCTAGACCTGTATATCCGGAGTCACCTAGTGCAG”: 11600 fluorescence intensity (a.u.); for “CGTTGCATTTATTAATTTACCTTTCTTCTTCTCACACAAGCGGAGTCACCTAGTGCAG”: 3470 fluorescence intensity (a.u.). With “AACCATAGACGACCTTAATTAGCTCGATCTGCAAGCAATCCGGAGTCACCTAGTGCAG”, the binding signal was 16000 fluorescence intensity (a.u.). As to “TCCTTGATTAACATCGATAACCTTAAACAAATGAGCACACCGGAGTCACCTAGTGCAG”, the binding signal is 26300 fluorescence intensity (a.u.). The same measure for “CCATTCAGTTTTGCTATATAATTGTCGATAAATTTTCTTCCGGAGTCACCTAGTGCAG”: 4590 fluorescence intensity (a.u.); for “AAATATTAATTTGCACTATAAGTCATCTATTGATATGCATCGGAGTCACCTAGTGCAG”: 12500 fluorescence intensity (a.u.). With “TTGATGGGGATTACAGTGAAGAATCTGATATTGATGAGGACGGAGTCACCTAGTGCAG”, the binding signal was 5240 fluorescence intensity (a.u.). The same measure for “ACACTTGAAATACTTGGGCGGGTAGGATTGGGTCGGGCTCCGGAGTCACCTAGTGCAG”: 3180 fluorescence intensity (a.u.); for “GACCAATTGATTTTGGAAAATCATGTTTTGCATTCCATGCCGGAGTCACCTAGTGCAG”: 33000 fluorescence intensity (a.u.). As to “ACACCATAATGGACACTAAATTACCATATCCTCAAGAAAACGGAGTCACCTAGTGCAG”, the binding signal was 14200 fluorescence intensity (a.u.). With “TAGCTAGATTGATAATGTACATATATGAATTTGTATGCGACGGAGTCACCTAGTGCAG”, the binding signal is 55500 fluorescence intensity (a.u.).

On to “ATCCGAACGAGCCCATAATTAGCGTGCATGTAACGTTGCTCGGAGTCACCTAGTGCAG”, for which the binding signal is 3650 fluorescence intensity (a.u.). Then “AGTTGCAAATTTTCATTCAATAACAAGCCTACCTACATGCCGGAGTCACCTAGTGCAG”, with 3460 fluorescence intensity (a.u.).

For “TTGCGGTGAGTGATAGTGATTGGATTGGACACGTAAACGTCGGAGTCACCTAGTGCAG”, the binding signal was 46300 fluorescence intensity (a.u.). The same measure for “TGTTGCTGTTTAATTTGCTGATGTCTCTGCCATGGCACCACGGAGTCACCTAGTGCAG”: 8640 fluorescence intensity (a.u.); for “CCTTAATTATGCTCTCTCAATAAACGATGTGTCTGACTCCCGGAGTCACCTAGTGCAG”: 36500 fluorescence intensity (a.u.). The same measure for “AACAATTTAACAACAAATCGAGTTAATGTTTCAGACGCGGCGGAGTCACCTAGTGCAG”: 3980 fluorescence intensity (a.u.); for “CATGGTAAATTTATCGTTTTATGTTGATACCTCCTCGGCACGGAGTCACCTAGTGCAG”: 10600 fluorescence intensity (a.u.). Take “ATAATAATCTAACTTATAGATTATAATAATCTATTATAATCGGAGTCACCTAGTGCAG”: the binding signal was 10700 fluorescence intensity (a.u.).

Turning to “AGTCAGCTGATTTAAATATAAACAGGGGTAAGAATTTAAGCGGAGTCACCTAGTGCAG”, the binding signal was 15000 fluorescence intensity (a.u.).

Turning to “TATAATTAATTATTTGCTAGATTTCATTCATATGACAATTCGGAGTCACCTAGTGCAG”, the binding signal is 54600 fluorescence intensity (a.u.). The same measure for “TGCATGGTAATATGATTTGACACGAAGGAAGGAAAGTAGACGGAGTCACCTAGTGCAG”: 4150 fluorescence intensity (a.u.); for “AGAATATGATTTTAAAATTAATTTTAGGGGAGGGTTTTACCGGAGTCACCTAGTGCAG”: 26000 fluorescence intensity (a.u.); for “TTCGGATTTTGATTGTGTTTCACATTTTCAAACCGCCAATCGGAGTCACCTAGTGCAG”: 11000 fluorescence intensity (a.u.).

On to “CGGAATTGTAATTTTGTCAACTTGGGTCCCAGAGATACCTCGGAGTCACCTAGTGCAG”, for which the binding signal was 17100 fluorescence intensity (a.u.). Then “CGAGATTGCCACACAAATGGGCTTTAATTACTGGAGGCCACGGAGTCACCTAGTGCAG”, with 29100 fluorescence intensity (a.u.); and “ATGATGGGTTTATAATTTTACCTTTGAACAGTTCTTTGACCGGAGTCACCTAGTGCAG”, with 12400 fluorescence intensity (a.u.); and “TATGATTAAACTGCTTATTTATATATTATAACACTATAGTCGGAGTCACCTAGTGCAG”, with 23700 fluorescence intensity (a.u.). The same measure for “CATGGACTAATTAGGCCCAAAAGATTCGTTTTGCAATTTCCGGAGTCACCTAGTGCAG”: 8800 fluorescence intensity (a.u.); for “TTAATTGATCTAATTTGGTGTTGTAAATATTAATATATTTCGGAGTCACCTAGTGCAG”: 15200 fluorescence intensity (a.u.).

As to “TAGATTAATTTGTCATCAAAACACCCTCATATAATTAATTCGGAGTCACCTAGTGCAG”, the binding signal was 19200 fluorescence intensity (a.u.). “CTAAATTAAACTGGTCCGGAATAAGTTTTGTGACAAAGTTCGGAGTCACCTAGTGCAG”: the binding signal was 32500 fluorescence intensity (a.u.). Then “CATAATTCGTAAATTTACAACTACCAAATCAAATGCAAGCCGGAGTCACCTAGTGCAG”, with 8180 fluorescence intensity (a.u.). On to “ATGCAATCCAATTACCAATCTGATCGTGATGTTGCGTTTGCGGAGTCACCTAGTGCAG”, for which the binding signal was 15200 fluorescence intensity (a.u.). The same measure for “CATGTCTAGATTTATTAACATCAATATAAATATGAAAATGCGGAGTCACCTAGTGCAG”: 3200 fluorescence intensity (a.u.). As to “CTAAAATTTAAAATTTTAGTTTATAAGAATAAGTATAAGACGGAGTCACCTAGTGCAG”, the binding signal was 4900 fluorescence intensity (a.u.). In the case of “CCTACATTAGTAGTTTAATTGTAGAGGACCTGGATCCTTACGGAGTCACCTAGTGCAG”, the binding signal was 3500 fluorescence intensity (a.u.).

As for “TAAACTGAATGTAATATTTTGGCAGTTAAATAGTTCACACCGGAGTCACCTAGTGCAG”, the binding signal was 3480 fluorescence intensity (a.u.). On to “AAGATTTAAACTTTGAAGTCAAATTTTGAAATCTTTCAACCGGAGTCACCTAGTGCAG”, for which the binding signal was 4070 fluorescence intensity (a.u.). The same measure for “ATCCATTCATTGATAGTGTGGTTTTGTGAAACTAAACTACCGGAGTCACCTAGTGCAG”: 3240 fluorescence intensity (a.u.).

On to “CTTCTAATTGGAGTAGTGAGTTCCCTACCATTGACGCAATCGGAGTCACCTAGTGCAG”, for which the binding signal was 20700 fluorescence intensity (a.u.).

Take “TTCAATCAACCAGTATGTTTCCTATGCCATGCCATGCAAACGGAGTCACCTAGTGCAG”: the binding signal was 4440 fluorescence intensity (a.u.).
